{
  "source": "PubChem BioAssay AID485281",
  "about": "(National Center for Advancing Translational Sciences (NCATS), 2010)",
  "note": "The whole screen tested about 350,000 compounds, of which about 260 (0.074%) were called active. Inconclusive means that the source gave no clear call. Such entries were picked first, then a sample of the others. The call rests on the fitted dose curve; in most records, active means well fitted inhibition curve with a large enough effect; inconclusive means small, poorly fitted or top-dose-only effect; inactive means no such curve, though single readings can be large or run the other way. Where the call is inconclusive, the potency comes from a doubtful curve fit. On the % scale 0 is the no-effect control and ±100 the full control effect; potency means the concentration at half of the fitted maximal effect; tags describe the fitted curve by direction and shape.",
  "data": [
    {"target": "Ferritin light chain (Equus caballus) (UniProt P02791)", "sequence (P02791 whole entry, looked up)": "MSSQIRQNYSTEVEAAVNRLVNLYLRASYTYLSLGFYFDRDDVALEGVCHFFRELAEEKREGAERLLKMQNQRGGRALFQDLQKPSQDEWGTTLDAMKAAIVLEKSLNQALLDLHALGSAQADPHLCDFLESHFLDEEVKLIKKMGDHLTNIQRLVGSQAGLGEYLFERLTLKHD", "test": "qHTS Assay for Identification of Novel General Anesthetics; further: nearly all actives have a fitted effect of over 20% in size", "settings": "apoferritin/1-aminoanthracene competitive binding, fluorescence; activity change, negative = displacement: at 77.5 µM (top of the series)", "procedure,_shortened": "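Horse-spleen apoferritin (10 uM) was mixed with 50% saturated 1-aminoanthracene in PBS, exposed to compounds for 10 min at room temperature, and read for fluorescence (ex 380 nm, em 535 nm). Competitive displacement was fitted with a four-parameter Hill equation.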", "values": [
      {"smiles": "COc1ccc(C(=O)C=CNNC(=O)c2ccc(Cl)cc2)cc1", "Potency": "inconclusive: 44.7 µM [inhibitor, partial curve]"},
      {"smiles": "O=C1CS(=O)(=O)C2(C(=O)N(Cc3ccc(F)cc3)c3ccccc32)N1c1cccc(C(F)(F)F)c1", "note": "(configuration not stated)", "Potency": "inconclusive: 0.891 µM [inhibitor, full curve]"},
      {"smiles": "CC1CCN(S(=O)(=O)c2ccc3c(c2)N(CC(=O)NCCc2ccc(Cl)cc2)C(=O)CO3)CC1", "Potency": "inactive"},
      {"smiles": "O=C(CCC(=O)N1CCSc2ccccc21)NCc1ccc(Cl)cc1", "Potency": "inconclusive: 25.1 µM [inhibitor, partial curve]"},
      {"smiles": "C=CCn1cnc2scc(-c3ccc(CC)cc3)c2c1=O", "Potency": "inconclusive: 14.1 µM [inhibitor, partial curve]"},
      {"smiles": "CC1(C)CC(N2CCCC2)=CC(=[N+]2CCCCC2)C1", "Potency": "inactive"},
      {"smiles": "O=C(NCCc1ccc(F)cc1)c1n[nH]c2ccccc12", "Potency": "inconclusive: 35.5 µM [inhibitor, partial curve]"},
      {"smiles": "COc1cccc(CNC(=O)c2cc3n(n2)CCCN(Cc2ccc(C)cc2)C3=O)c1OC", "Potency": "inactive"},
      {"smiles": "C=C(C)CSc1nc(N)c(C#N)c(-c2ccc(C)cc2)c1C#N", "Potency": "inconclusive: 39.8 µM [inhibitor, single point]"},
      {"smiles": "COC(=O)c1c(NC(=O)CSc2nnc(CNc3ccc(Cl)cc3)o2)sc(C)c1C", "Potency": "inconclusive: 3.98 µM [inhibitor, full curve]"},
      {"smiles": "COc1ccc(CC(=O)O/N=C(\\N)Cc2ccc(OC)cc2)cc1", "Potency": "inconclusive: 14.1 µM [inhibitor, partial curve]"},
      {"smiles": "COC(=O)C1=C(C)N(Cc2ccccc2)C(=NCc2ccccc2)N[C@H]1c1ccccc1", "Potency": "inconclusive: 12.6 µM [inhibitor, partial curve]"},
      {"smiles": "C/C(=N/OC(=O)C1CC12CCC2)c1ccc(Br)cc1", "note": "(configuration not stated)", "Potency": "inconclusive: 22.4 µM [inhibitor, partial curve]"},
      {"smiles": "Cc1ccc(/C=C2\\SC(=S)N(CCCC(=O)Nc3cccc(C(=O)O)c3)C2=O)cc1", "Potency": "inconclusive: 35.5 µM [inhibitor, partial curve]"},
      {"smiles": "CC1CCC2(CC1)NC(=O)c1ccccc1O2", "note": "(configuration not stated)", "Potency": "inconclusive: 31.6 µM [inhibitor, partial curve]"},
      {"smiles": "C/C=C/c1ccc(OCCOc2cc(C=O)ccc2OC)c(OC)c1", "Potency": "inconclusive: 22.4 µM [inhibitor, partial curve]"},
      {"smiles": "C=CCC(=O)OCC(=O)Nc1ccc(Oc2ccccc2)cc1", "Potency": "inconclusive: 35.5 µM [inhibitor, partial curve]"},
      {"smiles": "Cc1cc(C(=O)CN2C(=O)CCC2=O)c(C)n1Cc1ccccc1", "Potency": "inconclusive: 56.2 µM [inhibitor, single point]"},
      {"smiles": "C=CCOc1ccc(/C=N/NC(=O)CC(=O)NC2CCCCC2)cc1", "Potency": "inconclusive: 3.98 µM [inhibitor, full curve]"},
      {"smiles": "Cc1ccc(NS(=O)(=O)c2cccc3nsnc23)cc1", "Potency": "inconclusive: 31.6 µM [inhibitor, partial curve]"},
      {"smiles": "CCN(CC)S(=O)(=O)c1cccc(C(=O)NC(C(=O)Nc2nnc(C3CC3)s2)C(C)C)c1", "note": "(configuration not stated)", "Potency": "inconclusive: 39.8 µM [inhibitor, partial curve]"},
      {"smiles": "O=C(N/N=C\\c1ccc(CNS(=O)(=O)c2ccc(Cl)cc2)o1)C(=O)Nc1ccc(Oc2ccccc2)cc1", "Potency": "inactive"},
      {"smiles": "CCN(CC)CCN(C(=O)Cn1nnc(-c2ccc(C)o2)n1)C(C(=O)NC1CCCC1)c1ccc(F)cc1", "note": "(configuration not stated)", "Potency": "inconclusive: 31.6 µM [inhibitor, partial curve]"},
      {"smiles": "COc1ccc(Nc2nc(NCC3CCCO3)nc(N)c2[N+](=O)[O-])cc1", "note": "(configuration not stated)", "Potency": "inactive"},
      {"smiles": "Cc1ccc(CSCC(=O)NN=C2CCN(C)CC2)cc1", "Potency": "inconclusive: 39.8 µM [inhibitor, single point]"},
      {"smiles": "Cc1ccccc1OCc1nc(-c2ccc(NC(=O)c3ccco3)cc2)no1", "Potency": "inactive"},
      {"smiles": "Cc1ccc(C(C2=C(O)CC(C)(C)CC2=O)C2C(=O)CC(C)(C)CC2=O)s1", "note": "(configuration not stated)", "Potency": "inconclusive: 28.2 µM [inhibitor, partial curve]"},
      {"smiles": "COc1ccc(CCCC(=O)N/N=C/c2ccccc2OC)cc1", "Potency": "inconclusive: 20 µM [inhibitor, partial curve]"},
      {"smiles": "CCC1COCCS(=O)(=O)N1Cc1ccc(Cl)cc1", "note": "(configuration not stated)", "Potency": "inconclusive: 17.8 µM [inhibitor, partial curve]"},
      {"smiles": "O=C1CCN(Cc2ccccc2)CCN1CCSc1ccccc1", "Potency": "inactive"},
      {"smiles": "O=C1c2ccsc2SCCN1Cc1ccc(Cl)cc1", "Potency": "inconclusive: 28.2 µM [inhibitor, partial curve]"},
      {"smiles": "CCN(CCCNC(=O)COc1cc(=O)n(C)c2ccccc12)c1cccc(C)c1", "Potency": "inconclusive: 35.5 µM [inhibitor, partial curve]"},
      {"smiles": "O=C(COc1ccc2ccccc2c1)N1CCN(c2ccccc2O)CC1", "Potency": "inconclusive: 25.1 µM [inhibitor, partial curve]"},
      {"smiles": "N#C/C(=N\\Nc1ccc(F)cc1)C(=N)N1CCCCC1", "Potency": "inconclusive: 31.6 µM [inhibitor, partial curve]"},
      {"smiles": "Cc1cc(OCC(=O)N(C)C2CCCCC2)cc(C)c1Cl", "Potency": "inconclusive: 25.1 µM [inhibitor, partial curve]"},
      {"smiles": "COc1ccc(OC)c(N(CC(=O)Nc2ccccc2C(=O)NCc2ccco2)S(C)(=O)=O)c1", "Potency": "inconclusive: 56.2 µM [inhibitor, single point]"},
      {"smiles": "O=C(O/N=C1/CCSc2ccccc21)c1ccccc1", "Potency": "inconclusive: 14.1 µM [inhibitor, partial curve]"},
      {"smiles": "COc1ccc(Cl)cc1NC(=O)CCS(=O)(=O)c1cccc2nonc12", "Potency": "inactive"},
      {"smiles": "O=C(COC(=O)CCC(=O)c1cccs1)Nc1ccc(Cl)cn1", "Potency": "inconclusive: 31.6 µM [inhibitor, partial curve]"},
      {"smiles": "COCCN(C(=O)C(C)C)c1nnc(-c2cccc(C)c2)s1", "Potency": "inconclusive: 31.6 µM [inhibitor, partial curve]"},
      {"smiles": "CCCSc1nnc(Sc2nnnn2-c2ccccc2)s1", "Potency": "inconclusive: 25.1 µM [inhibitor, partial curve]"},
      {"smiles": "O=c1[nH][nH]c(=S)n1-c1ccccc1C(F)(F)F", "Potency": "inactive"},
      {"smiles": "CCN(CC)CCN(C(=O)c1ccc(S(=O)(=O)N(C)C2CCCCC2)cc1)c1nc2c(C)cccc2s1", "Potency": "inconclusive: 25.1 µM [inhibitor, single point]"},
      {"smiles": "O=C(C[n+]1ccc(C(=O)N/N=C/c2ccc(OCc3ccccc3)cc2)cc1)c1ccccc1", "Potency": "inconclusive: 31.6 µM [inhibitor, partial curve]"},
      {"smiles": "O=C(Nc1nnc(SCc2ccc(F)cc2)s1)c1ccc2ncsc2c1", "Potency": "inactive"},
      {"smiles": "CCOc1cc(C(=S)N2CCOCC2)ccc1OC(=O)/C=C/c1ccc(OC)c(OC)c1", "Potency": "inactive"},
      {"smiles": "CCc1cccc(C)c1NC(=O)CCCSc1nc2ccccc2s1", "Potency": "inactive"},
      {"smiles": "COc1ccc(C(=O)COC(=O)/C=C/c2ccc(S(=O)(=O)Nc3cccc(S(N)(=O)=O)c3)cc2)cc1", "Potency": "inconclusive: 11.2 µM [inhibitor, partial curve]"},
      {"smiles": "COc1cccc(NS(=O)(=O)c2cc(C)sc2C)c1", "Potency": "inconclusive: 50.1 µM [inhibitor, single point]"},
      {"smiles": "CC(O)c1cccc2cc(C(O)CNC(C)(C)C)oc12", "note": "(configuration not stated)", "Potency": "inactive"},
      {"smiles": "N#Cc1ccc(NCCNCC(=O)N2N=CCC2C#N)nc1", "note": "(configuration not stated)", "Potency": "inactive"},
      {"smiles": "Cc1cccc(C)c1OCC(=O)OCC(=O)c1ccc2c(c1)NC(=O)CO2", "Potency": "inconclusive: 35.5 µM [inhibitor, partial curve]"},
      {"smiles": "COC(=O)C1C2C=CC(C3CC23)C1C(=O)OCC(=O)c1ccccc1", "note": "(configuration not stated)", "Potency": "inconclusive: 39.8 µM [inhibitor, single point]"},
      {"smiles": "O=C(C1CC1)N1CCc2cc(Br)cc(S(=O)(=O)NC3CCCCC3)c21", "Potency": "inactive"},
      {"smiles": "Cc1cccc(N2CCN(C(=O)c3ccc(CS(=O)c4cccc(Cl)c4)o3)CC2)c1C", "note": "(configuration not stated)", "Potency": "inconclusive: 28.2 µM [inhibitor, partial curve]"},
      {"smiles": "O=C(CSc1nnc(NCc2ccccc2)s1)c1ccco1", "Potency": "inconclusive: 31.6 µM [inhibitor, partial curve]"},
      {"smiles": "O=S(=O)(NCCc1c[nH]c2ccccc12)c1ccccc1", "Potency": "inconclusive: 31.6 µM [inhibitor, partial curve]"},
      {"smiles": "COc1ccc(NC(=O)CCCSc2nc(-c3ccco3)cc(C(F)(F)F)n2)c(OC)c1", "Potency": "inconclusive: 14.1 µM [inhibitor, partial curve]"},
      {"smiles": "Cc1ccc(C2(CCN)CCOC(C(C)C)C2)cc1", "note": "(configuration not stated)", "Potency": "inactive"},
      {"smiles": "O=C(CSc1nnnn1C1CCCCC1)N1CCN(C(=O)c2ccco2)CC1", "Potency": "inconclusive: 11.2 µM [inhibitor, partial curve]"},
      {"smiles": "O=C1[C@H]2[C@H]3[C@H](O)[C@H](O)C/C(=N/OCc4ccccc4)[C@H]3CC[C@@H]2C(=O)N1c1cccc(Oc2ccccc2)c1", "activity change, negative = displacement": "inactive: -12.7% [at 15.3 µM]"},
      {"smiles": "Cc1ccc(OCC(=O)Nc2ccc(C)c(S(=O)(=O)N3CCCCC3)c2)c([N+](=O)[O-])n1", "Potency": "inconclusive: 15.8 µM [inhibitor, partial curve]"},
      {"smiles": "Cc1ccc(C(=O)N/C(=C/c2ccco2)C(=O)N2CCC(C)CC2)cc1", "Potency": "inconclusive: 31.6 µM [inhibitor, single point]"},
      {"smiles": "Cc1cccc(NC(=O)c2ccc(N3C(=O)C4CCCCC4C3=O)cc2)c1C", "note": "(configuration not stated)", "Potency": "inconclusive: 31.6 µM [inhibitor, partial curve]"},
      {"smiles": "CC1=Nc2ccccc2/C1=C\\c1sc(Nc2ccc(C)cc2)nc1O", "Potency": "inactive"},
      {"smiles": "Cc1ccc(NC(=O)COC(=O)COc2ccc(Cl)cc2)c([N+](=O)[O-])c1", "Potency": "inconclusive: 28.2 µM [inhibitor, partial curve]"},
      {"smiles": "O=C(COC(=O)CNC(=O)C1CCCCC1)Nc1ccc(Cl)cn1", "Potency": "inconclusive: 14.1 µM [inhibitor, partial curve]"}
    ]}
  ]
}
